Test results from PubChem BioAssay AID1240 (Sanford-Burnham Center for Chemical Genomics, 2008).
The whole screen tested about 50,000 compounds, of which about 800 (1.6%) showed an effect of 50% or more. Some of the results follow.

Biological target: Bcl-2-like protein 10 (Homo sapiens) (UniProt Q9HD36)
Assay: Phenotype converters, Bcl-B/TR3 peptide binding displacement, primary biochemical FP (AID 1240);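 also: 0% = Bcl-B with tracer peptide and DMSO and 100% = tracer peptide lacking Bcl-B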
Conditions: GST-Bcl-B / FITC-TR3 peptide fluorescence polarization; stronger effect = higher value; compound at 3.75 mg/L

Sequence of UniProt Q9HD36 (Q9HD36 whole entry, looked up): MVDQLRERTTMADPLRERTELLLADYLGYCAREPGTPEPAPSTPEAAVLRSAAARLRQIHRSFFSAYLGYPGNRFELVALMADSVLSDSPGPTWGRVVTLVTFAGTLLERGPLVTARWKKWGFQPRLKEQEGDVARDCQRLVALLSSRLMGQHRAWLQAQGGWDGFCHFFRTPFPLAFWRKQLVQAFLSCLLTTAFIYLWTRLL

| Structure (SMILES) | displacement |
| --- | --- |
| COc1cc2c(cc1CN1CCN(C(=O)CC(C)C)CC1)OCO2 | -8.9% |
| COC(=O)COc1ccc(/C=C2\C(=O)NC(=O)N(c3ccc(C(C)C)cc3)C2=O)cc1OC | -19.5% |
| O=C(COc1ccc([N+](=O)[O-])cc1)Nc1ccc2oc(-c3ccc(Br)cc3)nc2c1 | -2.5% |
| O=C(Nc1cccnc1)c1cccc(C(=O)Nc2cccnc2)c1 | 0.2% |
| NC(=S)N/N=C/c1cccn1-c1ccc([N+](=O)[O-])cc1 | -1% |
| O=C1CCC(C(=O)NCc2cccnc2)N1 (centres undefined) | 4.5% |
| O=C(O)CSc1nnc(C2COc3ccccc3O2)n1-c1ccccc1 (centres undefined) | 9.4% |
| CN1C(=O)c2cccc3c(N(C)C)ccc(c23)C1=O | 45.8% |
| COc1ccc(C2CC(=O)C3=C(C2)Nc2ccccc2NC3c2cc([N+](=O)[O-])ccc2Cl)cc1OC (centres undefined) | -6.4% |
| O=C(Nc1ccccc1C(=O)NCCc1ccccc1)c1ccccc1Cl | 4% |
| COc1ccc(NC(=O)C2C3CCC(C3)C2C(=O)O)c(OC)c1 (centres undefined) | 2.1% |
| COc1ccccc1C/C(N)=N/OC(=O)c1ccc(C(C)(C)C)cc1 | -7.4% |
| CC(=O)CCc1c(C)[nH]c2c(Cl)cccc2c1=S | -0.2% |
| CCN(CC)C(=O)Cc1ccc2c3c(cccc13)CC2 | 12.7% |
| CCOC(=O)C1=C(C)NC2=C(C(=O)CC(c3ccccc3)C2)C1c1ccc(Cl)cc1 (centres undefined) | 1% |
| COc1ccc(/C(O)=C2/C(=O)C(=O)N(CCCCCC(=O)O)C2c2ccc(Cl)cc2)cc1 (centres undefined) | 0.6% |
| Cc1cc(OCC(=O)OC(C)C)c2c(-c3ccccc3)cc(=O)oc2c1 | 8.2% |
| COc1ccc(CC(=O)Nc2ccc(S(=O)(=O)N3CCc4ccccc43)cc2)cc1 | -10.4% |
| CCOC(=O)c1c(NC(=O)c2ccccc2F)sc2c1CCCC2=O | 7.9% |
| O=C(Nc1c(C(=O)N2CCOCC2)cnn1-c1ccccc1)c1cccs1 | 12.5% |
| COc1ccc(C(=O)NC(=S)N2CCSCC2)cc1 | 9% |
| O=C(NC(Nc1ccc([N+](=O)[O-])cc1)C(=O)c1ccccc1)c1ccco1 (centres undefined) | 8.1% |
| O=C(Nc1cc(Cl)cc(Cl)c1)c1cccnc1 | -4% |
| COc1ccc(-c2nnc(NC(=O)c3ccccc3F)s2)cc1 | 10.3% |
| COc1ccc(-c2cc(C(F)(F)F)n3nc(C(=O)Nc4cccc(O)c4)cc3n2)cc1OC | 0.9% |
| O=C(c1cccnc1)N1CCN(c2cccc(Cl)c2)CC1 | -4.8% |
| Cc1c(NS(=O)(=O)c2ccc(F)cc2)c(=O)n(-c2ccccc2)n1C | -0.2% |

| Structure (SMILES) | displacement |
| --- | --- |
| CC(C)(C)c1ccc(OCCCCCn2ccnc2)cc1 | 3.2% |
| COc1ccc(N(CC(=O)NC(C)c2ccccc2)S(=O)(=O)c2ccccc2)cc1 (centres undefined) | 5.7% |
| Cc1ccc(/C=C2/SC(=O)N(CNc3ccc(Br)cc3C)C2=O)cc1 | 8.8% |
| NC(=O)c1cc(NC(=O)C(F)(F)F)c(Cl)cc1Cl | 0.6% |
| COc1ccc(CONc2ncnc3nonc23)cc1[N+](=O)[O-] | 14.2% |
| CCN1C(=O)/C(=C\c2cccc(O)c2)SC1=S | -7.9% |
| COCCCNC(=O)CN(c1ccc(OC)c(OC)c1)S(=O)(=O)c1ccc(C)cc1 | 1.3% |
| COc1ccc(Cl)cc1N1C(=O)C2C(c3ccc(Cl)cc3)OC3(C(=O)c4ccccc4C3=O)C2C1=O (centres undefined) | 11% |
| Oc1ccccc1/C=N/Nc1nnc2c(n1)[nH]c1ccc(Br)cc12 | 1.6% |
| COc1cc(NC(=O)c2ccccc2)c(Cl)cc1NC(=O)c1cc2ccccc2cc1OC | 13.4% |
| O=C1NC(=S)N/C1=C/c1cc2c(cc1[N+](=O)[O-])OCO2 | 13.8% |
| CCOc1cc(C(=O)Nc2ccc(N3CCOCC3)cc2)cc(OCC)c1OCC | 12.3% |
| CC(=Nc1ccccc1C)C1=C(O)CC(C)(C)CC1=O | -0.9% |
| Cc1ccccc1OCc1nc(-c2ccccn2)no1 | -9.4% |
| CC(=O)NC12CC3(C)CC(C)(C1)CC(NC(C)=O)(C3)C2 | -6.1% |
| O=C(Nc1ccc(Oc2ccccc2)cc1)C(F)(F)F | -4.1% |
| CCN(C(C)=O)C1=C(O)c2ccccc2C(=O)C1=O | 9% |
| CC1=C(C(=O)OCCCc2ccccc2)C(c2c(F)cccc2Cl)CC(=O)N1 (centres undefined) | 13.6% |
| Cc1cc(C)n(C(=O)c2c(C(=O)O)cccc2[N+](=O)[O-])n1 | 5.6% |
| COC(=O)C1=C(C)NC2=C(C(=O)CC(c3cccs3)C2)C1c1cc(OC)c(OC)c(OC)c1 (centres undefined) | 4.8% |
| COc1ccc(-c2csc(NC(=O)/C=C/c3ccc(OC)c(S(=O)(=O)N4CCCCC4)c3)n2)cc1 | -11.2% |
| COc1cc(C(=O)NC(NC(=S)Nc2ccccc2)C(Cl)(Cl)Cl)cc(OC)c1OC (centres undefined) | -5.5% |
| COc1cc(/C=C2/SC(=S)N(c3ccccc3)C2=O)cc(Br)c1OC(=O)c1ccc(C)cc1 | 2.3% |
| COc1cccc(-c2nc3cc(NC(=O)c4cccc(Cl)c4Cl)ccc3o2)c1 | 28.6% |
| O=C1c2cccc3cccc(c23)C(=O)N1CC1CCN(S(=O)(=O)c2ccc(F)cc2)CC1 | 10.3% |
| COC(=O)c1cc(NC(=O)Cc2ccc(Br)cc2)cc(C(=O)OC)c1 | -1.3% |
| O=C(O)/C(=C\C=Nc1ccc(Br)cc1)Nc1ccc(Br)cc1 | 6.1% |
